# Whole data set: some 33,000 sequences, median “E-score (-0.5 to 0.5)” near -0.012, cut for the highest 2% near 0.29. This is one part of the list.
# Target: T1, Ybr033w (UniProt P38073)
# T1 sequence: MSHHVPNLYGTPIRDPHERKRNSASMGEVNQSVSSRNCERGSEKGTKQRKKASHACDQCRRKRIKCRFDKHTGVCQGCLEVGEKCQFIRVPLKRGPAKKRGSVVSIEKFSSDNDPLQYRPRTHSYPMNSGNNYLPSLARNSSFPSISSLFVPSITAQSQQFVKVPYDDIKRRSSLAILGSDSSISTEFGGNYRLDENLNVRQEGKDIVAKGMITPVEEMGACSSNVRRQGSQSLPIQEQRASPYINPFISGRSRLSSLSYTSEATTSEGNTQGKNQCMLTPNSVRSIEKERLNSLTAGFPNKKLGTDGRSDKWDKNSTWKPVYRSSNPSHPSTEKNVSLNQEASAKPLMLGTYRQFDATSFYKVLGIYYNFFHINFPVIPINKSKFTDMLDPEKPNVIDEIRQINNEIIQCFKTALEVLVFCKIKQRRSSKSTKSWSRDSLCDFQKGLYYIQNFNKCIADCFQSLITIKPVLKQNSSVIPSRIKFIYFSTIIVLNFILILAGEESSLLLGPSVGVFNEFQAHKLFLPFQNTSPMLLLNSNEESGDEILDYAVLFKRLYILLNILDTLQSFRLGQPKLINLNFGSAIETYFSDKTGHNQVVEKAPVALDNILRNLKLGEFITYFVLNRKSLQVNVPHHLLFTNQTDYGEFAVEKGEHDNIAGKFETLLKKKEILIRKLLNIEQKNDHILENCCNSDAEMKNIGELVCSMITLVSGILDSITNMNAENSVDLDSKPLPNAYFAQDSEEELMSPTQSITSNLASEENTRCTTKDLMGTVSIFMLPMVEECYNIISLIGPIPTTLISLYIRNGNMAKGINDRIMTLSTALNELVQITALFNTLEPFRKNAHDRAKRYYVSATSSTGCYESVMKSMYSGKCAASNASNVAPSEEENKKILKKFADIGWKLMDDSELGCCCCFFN
# Test: PBM E-score (8-mer binding enrichment) (E-score (-0.5 to 0.5)); higher = stronger / more preferred TF binding; most listed sequences are background and not binding sites
# Conditions: protein concentration: 200 nM; construct: GST-full length
# Summary of the method: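 Each ungapped eight-base word and its reverse complement, pooled, received an E-score from the Universal PBM Analysis Suite. Underlying scans, normalised with masliner, recorded fluorescent anti-GST bound to GST-tagged yeast transcription factors. These were applied at about 100-200 nM to universal all-10-mer Agilent arrays double-stranded by primer extension.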
row,Sequence,PBM E-score
1,CCGGCAAA,0.0998
2,GCACGTTA,-0.06
3,ATCTACTG,0.143
4,ACCGACGT,0.114
5,GGCACGAC,-0.0797
6,AAGATTGG,0.133
7,AAATTCTG,0.287
8,ACCTAGTG,0.0772
9,CAACTTCC,0.116
10,CACAGCTC,-0.0709
11,AGAGACTA,-0.0151
12,AAATGCAG,0.024
13,AGTTTGCA,0.0409
14,GCGCCATA,-0.0196
15,TCTTGCCA,-0.177
16,TCAGGGAA,0.0109
17,AATGGGTC,-0.239
18,CACAGATC,-0.00409
19,CGTCGTAA,-0.191
20,CCGATCCC,-0.308
21,CGCTGGCA,-0.0391
22,AGGGATTC,0.0761

row,Sequence,PBM E-score
1,CAGCATCG,-0.136
2,CCATATGC,0.0157
3,CCCCATAA,-0.102
4,CCTATTAG,0.0425
5,AATATGCG,0.0344
6,AAGCCCTG,-0.0215
7,AATTTTGC,0.142
8,GAAATGAC,0.135
9,GCAGGACC,-0.155
10,GCCGGAGC,-0.177
11,CCCATTCG,-0.0351
12,GTTTCCGA,0.2
13,CCACTATA,0.0526
14,TGGTCGAA,-0.209
15,AGTGAACA,0.00583
16,TAGAAATA,0.211
17,GTTGTTGA,0.148
18,CGCTTTAG,-0.0236
19,GATTTGTA,0.129
20,AGAATGCC,-0.0863
21,ACGGATAG,0.0372
22,GGAACTGA,-0.112

row,Sequence,PBM E-score
1,CGCTTCTC,-0.18
2,GACTAATA,0.267
3,CCAGAGCC,-0.0997
4,ATGTAAGG,0.141
5,CAGCGTCG,-0.0932
6,ACGGCCGA,-0.0148
7,ACCTGTCC,-0.275
8,CTGGCCAC,-0.255
9,GATCTATA,0.157
10,AGTTAGCC,0.102
11,CAAACCCG,-0.162
12,CAGGAGGC,-0.202
13,GCCATCGA,0.0443
14,CGGCAAAA,-0.0196
15,CACGAGGC,-0.0463
16,CAAGGTAG,-0.0797
17,ACGAGGCA,-0.0799
18,GGGGTCCA,-0.328
19,GCAAAAGC,0.0476
20,CGGTCGTA,0.0625
21,CTTCGGTC,-0.00957
22,ATCTAAAT,0.277

row,Sequence,PBM E-score
1,CTTTCGCA,-0.0327
2,AACTAAAC,0.167
3,CGCCGGAG,-0.106
4,AGTGAACG,0.0746
5,CCATAGTA,0.0224
6,CTGCTACC,-0.0245
7,ATTCTCGA,0.142
8,GCTTAGTA,0.139
9,CAATTACC,0.093
10,ATCGTGAC,-0.0158
11,AGCGATTC,0.0209
12,AGAGGCCC,-0.33
13,ATTTTATC,0.325
14,GAGGTTAA,0.0431
15,GCCAACCC,-0.186
16,AAATACGA,0.212
17,ACGCTACC,-0.173
18,ACTCCTTG,0.0195
19,TACATCGA,0.111
20,ATCGGGTA,-0.0306

# Reference: the supplement of paper PMC3334620
